Results: patent US20230416345A1 (NAVIGO PROTEINS, published 2023)

T1: human collagen type III (human, UniProt P02461 154-1221)
T1 construct: Bought; also called h Col III; type III collagen
T1 sequence (looked up): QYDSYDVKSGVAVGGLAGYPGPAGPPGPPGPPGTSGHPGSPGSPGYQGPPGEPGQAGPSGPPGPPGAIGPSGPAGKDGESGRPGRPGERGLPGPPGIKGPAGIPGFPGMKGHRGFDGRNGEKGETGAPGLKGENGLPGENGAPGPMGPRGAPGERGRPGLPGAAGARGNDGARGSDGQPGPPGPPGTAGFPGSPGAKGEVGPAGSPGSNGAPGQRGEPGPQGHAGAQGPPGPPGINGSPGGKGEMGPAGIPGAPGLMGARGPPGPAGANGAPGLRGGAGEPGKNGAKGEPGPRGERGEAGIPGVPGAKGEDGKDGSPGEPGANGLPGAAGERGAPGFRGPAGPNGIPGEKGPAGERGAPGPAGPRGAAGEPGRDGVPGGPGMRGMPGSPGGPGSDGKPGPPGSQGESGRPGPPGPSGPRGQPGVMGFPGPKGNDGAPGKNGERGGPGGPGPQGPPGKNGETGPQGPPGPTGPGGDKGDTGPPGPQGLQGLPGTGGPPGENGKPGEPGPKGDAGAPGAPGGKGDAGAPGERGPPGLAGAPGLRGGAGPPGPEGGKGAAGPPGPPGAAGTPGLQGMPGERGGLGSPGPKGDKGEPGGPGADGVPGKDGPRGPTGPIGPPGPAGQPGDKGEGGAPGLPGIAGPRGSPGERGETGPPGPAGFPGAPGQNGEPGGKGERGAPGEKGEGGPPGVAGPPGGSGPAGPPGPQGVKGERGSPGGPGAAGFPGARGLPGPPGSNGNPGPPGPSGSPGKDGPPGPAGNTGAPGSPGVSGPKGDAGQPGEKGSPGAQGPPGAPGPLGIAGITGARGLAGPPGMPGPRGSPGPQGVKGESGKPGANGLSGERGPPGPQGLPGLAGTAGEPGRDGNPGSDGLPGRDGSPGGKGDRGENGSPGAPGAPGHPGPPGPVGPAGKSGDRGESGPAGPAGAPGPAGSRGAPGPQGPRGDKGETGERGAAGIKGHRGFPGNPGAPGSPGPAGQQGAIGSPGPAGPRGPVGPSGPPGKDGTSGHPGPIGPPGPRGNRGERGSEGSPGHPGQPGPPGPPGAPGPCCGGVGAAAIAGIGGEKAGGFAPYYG


What was measured:
[1] = molecular target: T2, 67B89 (domain of fibronectin) (UniProt P02751 1089-1540, limits assumed); assay: ELISA, 67B89 coated on the plate, A 450-600 nm
T2 construct: domain: EDB (67B89); Unrelated control protein; also called fibronectin domain EDB (67B89); extradomain B of fibronectin
Procedure: (§1) High binding plates (Greiner, 781061) were immobilized with 2.5 μg/ml recombinant human collagen type II (h Col II, Chondrex, CHX-20051), rabbit collagen type II (rbCol II, prepared from rabbit eyes), porcine collagen type II (p Col II, prepared from porcine eyes), human collagen type I, (h Col I, Sigma, C5483-1MG), human collagen type V (h Col V, Abcam, ab7537), human collagen type III (h Col Ill, Abcam, ab7535) and 67B89 (domain of fibronectin, produced in E. coli) respectively over night at 4° C. ELISA-plates were washed 3 times with PBST (PBS+ 0.1% Tween) and blocked with 3% BSA/0.5% Tween/PBS 2 h at RT. […] Plates were washed with PBST and incubated with biotinylated anti-StrepTag-ab (Antikörper-online, ABIN1573895) with a dilution of 1:10.000 for 1 h at rt. The binding was visualized with a-rabbit-IgG-HRP (Sigma, A9169) with a dilution of 1:10.000 and as substrate TMB Plus von KEM EN TEC Diagnostic, Kat-Nr. 4395.
(§2) Results. ELISA analysis clearly confirms the specific binding to type II collagen. […] No unspecific binding to type I collagen, type III collagen, type V collagen or to a domain of fibronectin (67B89) was detected (FIG. 2).

rabbit collagen type II = molecular target: T3, rabbit collagen type II (rabbit); assay: ELISA, collagen coated on the plate, dilution series of the binder, detection via StrepTag, A 450-600 nm
T3 construct: Prepared from rabbit eyes; also called rbCol II
Procedure: as §1, §2

porcine collagen type II [2] = molecular target: T4, porcine collagen type II (porcine); assay: as above
T4 construct: Prepared in house from pig eyes; also called p Col II; porcine type II collagen
Procedure: as §1, §2

human collagen type III = molecular target: T1, human collagen type III; assay: ELISA, h Col III coated on the plate, A 450-600 nm
Procedure: as §1, §2

porcine collagen type II [3] = molecular target: T4, porcine collagen type II; assay: ELISA (KD determination by ELISA, Example 5)

T2 sequence (P02751 1089-1540 limits assumed): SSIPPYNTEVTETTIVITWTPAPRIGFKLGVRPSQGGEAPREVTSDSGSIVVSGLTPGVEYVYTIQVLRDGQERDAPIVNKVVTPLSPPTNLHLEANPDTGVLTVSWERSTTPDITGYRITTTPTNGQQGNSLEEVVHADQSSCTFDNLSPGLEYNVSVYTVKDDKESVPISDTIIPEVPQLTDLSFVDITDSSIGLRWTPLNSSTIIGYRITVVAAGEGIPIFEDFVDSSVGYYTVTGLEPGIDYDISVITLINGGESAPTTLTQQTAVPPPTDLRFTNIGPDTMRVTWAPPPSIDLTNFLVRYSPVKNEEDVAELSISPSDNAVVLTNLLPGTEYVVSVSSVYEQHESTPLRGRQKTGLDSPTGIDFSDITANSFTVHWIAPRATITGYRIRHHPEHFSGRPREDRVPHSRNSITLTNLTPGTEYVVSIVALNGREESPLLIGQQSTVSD

Row | Binder | binding result [1] | Kd (rabbit collagen type II) [nM] | Kd (porcine collagen type II [2]) [nM] | binding result (human collagen type III) | Kd (porcine collagen type II [3]) [nM]
1 | CID 212705 (SEQ ID NO: 40), dimer of SEQ ID NO: 15 (designed binder, not shown: C-terminal Strep-tag (detected with anti-StrepTag antibody)) IAAKFDEAQQAADKEILHLPNLTEQQRNYFRQWLRDDPSVSPTVLGTAQQLNDSQAPKIAAKFDEAQQAADKEILHLPNLTEQQRNYFRQWLRDDPSVSPTVLGTAQQLNDSQAPKSAWSHPQFEK | no binding (tested: 10000 nM) | 66.7 | 64.5 | no binding (tested: 10000 nM) | 
2 | CID 212704 (SEQ ID NO: 42), tetramer of SEQ ID NO: 15 (designed binder, not shown: C-terminal Strep-tag (detected with anti-StrepTag antibody)) IAAKFDEAQQAADKEILHLPNLTEQQRNYFRQWLRDDPSVSPTVLGTAQQLNDSQAPKIAAKFDEAQQAADKEILHLPNLTEQQRNYFRQWLRDDPSVSPTVLGTAQQLNDSQAPKGGGSIAAKFDEAQQAADKEILHLPNLTEQQRNYFRQWLRDDPSVSPTVLGTAQQLNDSQAPKIAAKFDEAQQAADKEILHLPNLTEQQRNYFRQWLRDDPSVSPTVLGTAQQLNDSQAPKSAWSHPQFEK | no binding (tested: 100 nM) | 0.3 | 0.17 | no binding (tested: 100 nM) | 
3 | 209130 (SEQ ID NO: 27) (designed binder, also called CID 209130; not shown: C-terminal Strep-tag from the expression vector) IAAKFDEAQIAAFWEIYHLPNLTEEQRTAFIWSLYDDPSVSLEVLGEAQKLNDSQAPKIAAKFDEAQQAAFYEILHLPNLTEQQRNYFIQWLRDDPSVSPTVLGTAQQLNDSQAPK |  |  |  |  | 110
4 | 211138 (SEQ ID NO: 34) (designed binder, also called CID 211138; not shown: C-terminal Strep-tag from the expression vector) IAAKFDEAQYAAFYEIWHLPNLTEEQREAFIASLADDPSVSLEVLGEAQKLNDSQAPKIAAKFDEAQQAAFYEILHLPNLTEQQRNYFIQWLRDDPSVSPTVLGTAQQLNDSQAPK |  |  |  |  | 810
